# According to article PMC7819943, “Rice protein-binding microarrays: a tool to detect cis-acting elements near promoter regions in rice”:
# The list shows a part of the results.
# Biological target: T1, OsWOX13 (Oryza sativa, UniProt Q5QMM3 1-267)
# T1 sequence: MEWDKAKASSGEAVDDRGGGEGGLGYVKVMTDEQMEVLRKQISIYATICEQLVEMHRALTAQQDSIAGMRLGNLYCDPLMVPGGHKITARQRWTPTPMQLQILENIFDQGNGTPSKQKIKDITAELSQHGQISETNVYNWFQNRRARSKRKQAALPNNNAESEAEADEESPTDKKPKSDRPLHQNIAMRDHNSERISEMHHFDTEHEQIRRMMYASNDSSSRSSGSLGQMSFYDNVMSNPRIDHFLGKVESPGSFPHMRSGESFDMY
# Assay: protein-binding microarray (RPBM); PBS, 2% BSA, 51.3 ng/ul salmon testes DNA, 50 uM zinc acetate, 200 nM TF, 25 C, 1 h; high values mean tight binding
# Settings: protein: recombinant; tags: N-terminal polyhistidine and DsRed monomer fusion (pET32a); label: CyDye5-dUTP incorporated in the synthesized complementary strand; 3' TTTTT single-stranded linker to array surface; dsDNA, one strand shown
# Procedure, shortened: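 For the binding signal, per-feature fluorescence intensity was read in arbitrary units on an Axon 4000B scanner. Before scanning, a 2% BSA-blocked custom Agilent array made double-stranded with Cy5-dUTP was washed after 1 h at 25 °C with 200 nM protein and 50 µM zinc acetate. The proteins were Ni–NTA-purified transcription factors with N-terminal polyhistidine and DsRed fusions, expressed in E. coli BL21-CodonPlus.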
row,Sequence,binding signal
1,GATTGGATTGGATTGTTTTGCTGGCTCGCTCTCTCTCTCTCGGAGTCACCTAGTGCAG,13600 fluorescence intensity (a.u.)
2,ACTTGATGACATCATACTGACATGGGCGTCCGATTCCTAGCGGAGTCACCTAGTGCAG,16500 fluorescence intensity (a.u.)
3,ATAATTATGCTTCTGTTTTAAGTACCTCGTCATAATGAAGCGGAGTCACCTAGTGCAG,3900 fluorescence intensity (a.u.)
4,GGCATGACAGGAGCAGTTTCCTTCTTGGATTCAGATTCCCCGGAGTCACCTAGTGCAG,3790 fluorescence intensity (a.u.)
5,ATATAATAGATTAACTATAAAGTTGGCTATAATATATTTCCGGAGTCACCTAGTGCAG,6360 fluorescence intensity (a.u.)
6,TGTTAATTACCGCAAACCAGAATTGGTTTTCTTAACATGCCGGAGTCACCTAGTGCAG,40500 fluorescence intensity (a.u.)
7,ATACTCCAATCAACCAACCCGTCATATGGGACGCCATTATCGGAGTCACCTAGTGCAG,16300 fluorescence intensity (a.u.)
8,CATGTATTACACTAGTATTAATTGATCCGGGAAAATCTAGCGGAGTCACCTAGTGCAG,10200 fluorescence intensity (a.u.)
9,GAGGGGTAAATAGTTAATTATTCCTCTATTTTGGGTGGAGCGGAGTCACCTAGTGCAG,6010 fluorescence intensity (a.u.)
10,CGCTAATTAGCCAAGCCATTGTACGTGCCGCTAATAAGCTCGGAGTCACCTAGTGCAG,42700 fluorescence intensity (a.u.)
11,GTCTCAATTAATGGATTGATCACTTCTAATACTTTGTAAACGGAGTCACCTAGTGCAG,5000 fluorescence intensity (a.u.)
12,TTTGATTGAGAACTACAATGCTTTGGAGGATGAGAATGGACGGAGTCACCTAGTGCAG,25700 fluorescence intensity (a.u.)
13,TAAAATTATTGTGGAATGTCAATGAACCAGTAAATTCTAGCGGAGTCACCTAGTGCAG,3380 fluorescence intensity (a.u.)
14,AAAGACAGACTCCTAATTGCAGCTCATGATTTTCTAAAAGCGGAGTCACCTAGTGCAG,32200 fluorescence intensity (a.u.)
15,CGAATTTAAACAGAGATATGTATCCCATATAATCCGTTGTCGGAGTCACCTAGTGCAG,6250 fluorescence intensity (a.u.)
16,AAATTGATGGACGCTTGAGTCGGATAGGATCCATCGATTTCGGAGTCACCTAGTGCAG,15100 fluorescence intensity (a.u.)
17,CAGTCCAATTAATTTTCTCTGTGATCCGGTGCCCTCTGACCGGAGTCACCTAGTGCAG,18700 fluorescence intensity (a.u.)
18,TAAGTTAATGATTAGAGCTTTTATCGTCTCAACTGTCATACGGAGTCACCTAGTGCAG,24700 fluorescence intensity (a.u.)
19,GGTACTGATACTAATTACTAAATGCCTAAGACTTTTGATGCGGAGTCACCTAGTGCAG,10800 fluorescence intensity (a.u.)
20,GTGTTAGCCCCTGATTAGTTGACAGGAGTAGATTAATAGTCGGAGTCACCTAGTGCAG,10400 fluorescence intensity (a.u.)
21,CAAACAGTCAATTAGGCCTAAACAAGTTGCTACGAGCTAGCGGAGTCACCTAGTGCAG,33200 fluorescence intensity (a.u.)

row,Sequence,binding signal
1,AAACTATTACTGATAATCTATTTGTTGTTAAAGGCTTTTGCGGAGTCACCTAGTGCAG,8230 fluorescence intensity (a.u.)
2,TGACATTTCCATCAATTTAGTTACACTGACAGGTGGGCCCCGGAGTCACCTAGTGCAG,14200 fluorescence intensity (a.u.)
3,CCCTGTCAATCAATCATCCAAAGTTCAAAACAATTCAAATCGGAGTCACCTAGTGCAG,38200 fluorescence intensity (a.u.)
4,ATTACGCCATGATTTGACAATGTGATGCTACAGTAAACATCGGAGTCACCTAGTGCAG,7010 fluorescence intensity (a.u.)
5,GTACAATTGCATCTAAATGATCATTTAGGTGTACACCTAACGGAGTCACCTAGTGCAG,5980 fluorescence intensity (a.u.)
6,AATATTAAATAATCTAACTTGATTTGTTGTAATATCTTATCGGAGTCACCTAGTGCAG,5590 fluorescence intensity (a.u.)
7,AGAGAGATTGAGAGGAAGAGGAGGGAAAGAGACAGGTGAGCGGAGTCACCTAGTGCAG,4180 fluorescence intensity (a.u.)
8,GAGATGATAATGATGATGGAATGTGCACGTTGAATAAAACCGGAGTCACCTAGTGCAG,12000 fluorescence intensity (a.u.)
9,CATAACTTACAATTGGGCTACACCTATTACTGACAGCAAACGGAGTCACCTAGTGCAG,3340 fluorescence intensity (a.u.)
10,ATGCTACTACTAATTACTAAACATCACAGCCTCAGAGAATCGGAGTCACCTAGTGCAG,4240 fluorescence intensity (a.u.)
11,TTACATGATTAAATGGTCTTCTTGAATTTTGCGGTGACATCGGAGTCACCTAGTGCAG,8150 fluorescence intensity (a.u.)
12,GCCCAAGTCATCAATCTTCAACTAATCGATTTGGACAGTTCGGAGTCACCTAGTGCAG,3350 fluorescence intensity (a.u.)
13,CTGGTAATAGAATTAATATTCACATATAGGAGTATCTCCCCGGAGTCACCTAGTGCAG,7630 fluorescence intensity (a.u.)
14,CCGATAAATTTAATCCGTTTCTTAACCGATTCCGCACCGACGGAGTCACCTAGTGCAG,13700 fluorescence intensity (a.u.)
15,CCACTGCCCAATCATTTTCACTCGCAGATAATAATCTCAACGGAGTCACCTAGTGCAG,3740 fluorescence intensity (a.u.)
16,AATAAACTTCCTCCTTGATTGGGCTGGGTCGCGTACCCGACGGAGTCACCTAGTGCAG,18700 fluorescence intensity (a.u.)
17,AAATGAGCTAATTATATATGTTGATATTTGTTCTAGAAGTCGGAGTCACCTAGTGCAG,3420 fluorescence intensity (a.u.)
18,GTTAATTTTGAAGTGAATAAACTTTTGCGTATGTATGTAACGGAGTCACCTAGTGCAG,21800 fluorescence intensity (a.u.)
19,AATTTAACCAAATCAATTTATTGTATCGTATAAATGTGATCGGAGTCACCTAGTGCAG,15100 fluorescence intensity (a.u.)
20,CTTCAATCTGTTCATTACAATCTCTCTCTCTCTCTCTCTCCGGAGTCACCTAGTGCAG,3930 fluorescence intensity (a.u.)
21,TTGATATTTAATAAATTATATATAGATAATATACATATGACGGAGTCACCTAGTGCAG,6240 fluorescence intensity (a.u.)
